Results on one molecule are retold here after US20160291037A1.

Test [1] has as its target oligomeric beta-amyloid (human) (UniProt P05067). Kind of test: phage-based capture ELISA; TBI sera 24 hrs post-injury; normalized 0-1; outliers removed.
The target is the same in test [2]. Kind of test: phage-based capture ELISA; TBI sera 24 hrs post-injury; normalized 0-1; outliers present.
The target is the same in test [3]. Kind of test: phage-based capture ELISA; TBI sera 6 hrs post-injury; normalized 0-1; outliers removed.
The target is the same in test [4]. As to the kind of experiment: phage-based capture ELISA; TBI sera 10 days post-injury; normalized 0-1; outliers present.
For test [5] the target is unchanged. As to the kind of experiment: phage-based capture ELISA; TBI sera 5 days post-injury; normalized 0-1; outliers removed.
The target is the same in test [6]. Kind of test: phage-based capture ELISA; TBI sera 10 days post-injury; normalized 0-1; outliers removed.
Test [7] has the same target. Kind of test: phage-based capture ELISA; TBI sera 6 hrs post-injury; normalized 0-1; outliers present.
The target is the same in test [8]. Kind of test: phage-based capture ELISA; control (ND) sera; normalized 0-1; outliers present.
For test [9] the target is unchanged. Kind of test: phage-based capture ELISA; TBI sera 5 days post-injury; normalized 0-1; outliers present.
For test [10] the target is unchanged. Kind of test: phage-based capture ELISA; control (ND) sera; normalized 0-1; outliers removed.

B1: C6T anti-oligomeric beta-amyloid scFv (nanobody) (scFv)
scFv: [sequence of about 100 residues not given]SYGSVKISCFDYWGQSTLVTVSSGGGGSGGGGSGGGGSEIVLTQSPDSLAVSLGERATINCKSSQSVLYNSNNKNYLAWYQQKPGQSPELLIYWASTRESGVPDRFSGSGSGTEFTLTISSLQAEDVAVYYCQQFYSTPPTFGQGTKLEIKRAAAHHHHHHGAAEQKLISEEDLNGAA
On to B1, for which the normalized binding ratio (heat map) in test [1] amounted to 0.153; in test [2], 0.153; in test [3], 0.176; in test [4] it was 0.246; in test [5], 0.24; in test [6] it was 0.246. Moreover, the normalized binding ratio (heat map) stood at 0.176 in [7], 0.105 in [8], 0.24 in test [9] and 0.105 in test [10].
